According to publication PMC4336329 (PLoS ONE, 2015):
In all, about 310,000 compounds went through this assay and about 2,200 (0.71%) showed an effect of 50% or more. Effects have a minus sign here. The list shows a part of the results.

What follows are molecules tested against human ether-à-go-go-related gene (hERG) potassium channel (human, UniProt Q12809) (assay: primary screen, population patch clamp on CHO cells stably expressing hERG).
Sequence of human ether-à-go-go-related gene (hERG) potassium channel (Q12809 whole entry, looked up): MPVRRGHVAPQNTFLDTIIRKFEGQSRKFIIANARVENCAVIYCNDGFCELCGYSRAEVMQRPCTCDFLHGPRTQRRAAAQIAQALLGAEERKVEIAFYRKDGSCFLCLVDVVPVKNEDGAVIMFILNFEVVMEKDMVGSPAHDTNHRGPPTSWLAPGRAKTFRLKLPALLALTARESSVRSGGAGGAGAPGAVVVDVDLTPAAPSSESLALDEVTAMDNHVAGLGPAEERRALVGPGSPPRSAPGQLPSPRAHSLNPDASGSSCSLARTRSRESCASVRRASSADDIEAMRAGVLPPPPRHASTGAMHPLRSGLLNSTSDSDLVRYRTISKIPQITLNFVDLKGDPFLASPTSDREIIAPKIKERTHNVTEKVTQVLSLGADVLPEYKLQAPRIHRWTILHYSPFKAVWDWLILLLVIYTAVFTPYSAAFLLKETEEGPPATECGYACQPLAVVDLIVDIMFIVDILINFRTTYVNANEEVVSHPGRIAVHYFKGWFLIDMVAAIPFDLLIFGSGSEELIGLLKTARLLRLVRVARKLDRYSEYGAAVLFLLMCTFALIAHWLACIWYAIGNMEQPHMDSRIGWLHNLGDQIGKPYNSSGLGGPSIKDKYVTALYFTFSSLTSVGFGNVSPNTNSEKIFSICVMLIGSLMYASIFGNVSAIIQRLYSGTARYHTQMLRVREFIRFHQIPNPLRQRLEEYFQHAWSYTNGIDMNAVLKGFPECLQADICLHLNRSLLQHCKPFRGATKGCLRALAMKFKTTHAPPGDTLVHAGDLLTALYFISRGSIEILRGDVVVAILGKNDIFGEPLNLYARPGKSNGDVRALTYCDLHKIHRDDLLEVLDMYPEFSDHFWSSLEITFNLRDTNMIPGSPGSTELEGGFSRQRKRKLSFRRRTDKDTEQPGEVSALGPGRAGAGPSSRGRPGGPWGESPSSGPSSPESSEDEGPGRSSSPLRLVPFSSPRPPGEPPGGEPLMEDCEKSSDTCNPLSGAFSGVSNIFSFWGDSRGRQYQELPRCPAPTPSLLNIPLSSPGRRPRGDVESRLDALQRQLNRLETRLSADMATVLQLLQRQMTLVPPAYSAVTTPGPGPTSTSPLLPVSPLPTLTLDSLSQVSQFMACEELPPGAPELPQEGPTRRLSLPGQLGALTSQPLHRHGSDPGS

SMILES	hERG current change (%, negative = inhibition) at 1uM
O=C(Nc1ccc(C(F)(F)F)cc1)c1ccccc1Br	14.4%
Cc1ccc2[nH]cc(CCNC(=O)c3ccc([N+](=O)[O-])cc3)c2c1	3%
CC1CC(C)CN(S(=O)(=O)c2ccc(C(=O)N(c3ccccn3)C3CCCCC3)cc2)C1 (centres unmarked)	6.65%
CCOC(=O)C1CCN(C(=O)c2ccc3c(=O)n4nc(Nc5cc(C)ccc5C)sc4nc3c2)CC1	3.92%
CN(C)CCCNC(=O)CC(c1ccccc1)c1ccccc1O (centres unmarked)	4.02%
Cc1ccc(C)c(Nc2ncccc2C(=O)NCc2cccs2)c1	-1.72%
O=C1NN=C(CSc2n[nH]c(=S)s2)CS1	19.3%
CN(c1ccccc1C(=O)Nc1ccc2ccccc2c1)S(C)(=O)=O	6.36%
COc1ccc(-c2csc3nc(C)nc(N4CCC(C)CC4)c23)cc1OC	10.4%
Cc1cc(C)c(S(=O)(=O)NCc2ccc3c(c2)cc(C)n3C)c(C)c1	5.52%
CC(=O)N/C(=C\c1ccccc1)C(=O)OCc1ccc(C)cc1	-24.6%
O=C(c1ccccc1F)c1cn(CC(=O)N2CCOCC2)c2ccccc12	5.13%
COC(=O)[C@@]1(Cc2ccc(F)cc2)[C@H]2c3cc(C(=O)N(C)C)n(CCc4ccc(OC)c(Br)c4)c3C[C@H]2CN1C(=O)c1ccccc1	1.81%
CCc1ccccc1NC(=O)Cn1nnc(C(=O)NCc2cccs2)c1N	11.9%
CCn1c(=O)c(=O)n(CC)c2cc(S(=O)(=O)Nc3ccc(C)cc3)ccc21	7.21%
Cn1c(=O)c2c(ncn2Cc2cc(-c3ccccc3)no2)n(C)c1=O	-9.14%
COc1ccc(S(=O)(=O)N2CCCN(CC(=O)Nc3cc(NC(C)=O)ccc3OC)CC2)cc1	-2.83%
OC(COc1ccccc1CNCc1cccnc1)CN1CCc2ccccc2C1 (centres unmarked)	-7.56%
NC(=O)c1cc(NC(=O)c2ccc(NS(=O)(=O)c3cccs3)cc2)cc(C(N)=O)c1	7.89%
COc1ccc(C2Nc3ccccc3C(=O)N2NS(=O)(=O)c2ccccc2)cc1 (centres unmarked)	9.11%
COc1cccc(N(C(=O)CCl)C(C(=O)NCCc2ccccc2)c2cccs2)c1 (centres unmarked)	4.64%
CCOC(=O)N1CCN(C(=O)c2ccc3c(=O)n(CCC4=CCCCC4)c(=O)[nH]c3c2)CC1	16%

SMILES	hERG current change (%, negative = inhibition) at 1uM
O=C1c2cccnc2Nc2ccccc2N1CCCF	9.97%
O=S(=O)(c1ccc(Br)s1)N1CCc2ccccc2C1	6.12%
C#CCOc1ccc(/C=C2/C(=O)ON=C2C)cc1Cl	20.2%
CCOc1ccc(N(C)S(=O)(=O)c2ccc(-c3ccc(=O)[nH]n3)s2)cc1	-6.5%
COc1cc(C(C)=O)ccc1OCCN1CCC(Cc2ccccc2)CC1.O=C(O)C(=O)O	-93.3%
Cc1cc(C)nc(CCNC(=O)c2cc(COc3ccc(F)cc3Cl)on2)n1	-4.3%
Cc1ccccc1NC1=C/C(=N\S(=O)(=O)c2cccs2)c2ccccc2C1=O	0.476%
CCCCCCCC(=O)N/N=C(/C)c1c(O)cc(C)oc1=O	-14.8%
CCOC(=O)N1CCN(C(=O)CSc2ccc(C(=O)OC)cc2[N+](=O)[O-])CC1	14.8%
S=C(NC1CCCC1)N1CCN(C/C=C/c2ccccc2)CC1	5.52%
COc1ccc(C(=O)NCC(=O)NCC(=O)OCC(=O)c2ccc(C)cc2)cc1	11.8%
O=[N+]([O-])c1ccc(/C([O-])=C(/C(=S)Nc2ccccc2F)[n+]2ccccc2)cc1	1.93%
CCSc1nnc(CNc2ccc(C)cc2)n1C	9.42%
O=C1CC(NNc2nc3ccccc3s2)C(=O)N1c1ccc(F)cc1 (centres unmarked)	13.6%
COc1ccc(S(=O)(=O)NC2CCCCC2)cc1C	2.78%
CN(C)C(=S)SCC(=O)NC(=O)NC(C)(C)C	14%
Cc1cccc(C)c1OC(=O)CSc1nnc(-c2ccccc2)o1	10.8%
Cc1nnc(SCC(=O)Nc2ccc(Br)cc2)n(N)c1=O	8.03%
CCCN(CCC)Cc1c(C(=O)N/N=C/c2c[nH]c3ccccc23)nnn1-c1nonc1N	6.41%
O=C(c1ccc(Cl)cc1)n1cnc2ccccc21	8.54%
Cc1ccsc1/C=N\NC(=O)c1cc(C(C)(C)C)[nH]n1	6.9%
CCCCN(CCCNC(=O)C1CCN(S(=O)(=O)N2CCOCC2)CC1)c1ccccc1	-3.94%
